Results taken from paper PMC4336329 (PLoS ONE, 2015).
The whole screen tested about 310,000 compounds, of which about 14,000 (4.5%) showed an effect of 50% or more. The effect is printed as a negative number. Some of the results follow.

biological target: human ether-à-go-go-related gene (hERG) potassium channel (human, UniProt Q12809); assay: primary screen, population patch clamp on CHO cells stably expressing hERG
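Note: peak tail current of the secondary pulse compared with the same well before compound.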

Chain of human ether-à-go-go-related gene (hERG) potassium channel (Q12809 whole entry, looked up): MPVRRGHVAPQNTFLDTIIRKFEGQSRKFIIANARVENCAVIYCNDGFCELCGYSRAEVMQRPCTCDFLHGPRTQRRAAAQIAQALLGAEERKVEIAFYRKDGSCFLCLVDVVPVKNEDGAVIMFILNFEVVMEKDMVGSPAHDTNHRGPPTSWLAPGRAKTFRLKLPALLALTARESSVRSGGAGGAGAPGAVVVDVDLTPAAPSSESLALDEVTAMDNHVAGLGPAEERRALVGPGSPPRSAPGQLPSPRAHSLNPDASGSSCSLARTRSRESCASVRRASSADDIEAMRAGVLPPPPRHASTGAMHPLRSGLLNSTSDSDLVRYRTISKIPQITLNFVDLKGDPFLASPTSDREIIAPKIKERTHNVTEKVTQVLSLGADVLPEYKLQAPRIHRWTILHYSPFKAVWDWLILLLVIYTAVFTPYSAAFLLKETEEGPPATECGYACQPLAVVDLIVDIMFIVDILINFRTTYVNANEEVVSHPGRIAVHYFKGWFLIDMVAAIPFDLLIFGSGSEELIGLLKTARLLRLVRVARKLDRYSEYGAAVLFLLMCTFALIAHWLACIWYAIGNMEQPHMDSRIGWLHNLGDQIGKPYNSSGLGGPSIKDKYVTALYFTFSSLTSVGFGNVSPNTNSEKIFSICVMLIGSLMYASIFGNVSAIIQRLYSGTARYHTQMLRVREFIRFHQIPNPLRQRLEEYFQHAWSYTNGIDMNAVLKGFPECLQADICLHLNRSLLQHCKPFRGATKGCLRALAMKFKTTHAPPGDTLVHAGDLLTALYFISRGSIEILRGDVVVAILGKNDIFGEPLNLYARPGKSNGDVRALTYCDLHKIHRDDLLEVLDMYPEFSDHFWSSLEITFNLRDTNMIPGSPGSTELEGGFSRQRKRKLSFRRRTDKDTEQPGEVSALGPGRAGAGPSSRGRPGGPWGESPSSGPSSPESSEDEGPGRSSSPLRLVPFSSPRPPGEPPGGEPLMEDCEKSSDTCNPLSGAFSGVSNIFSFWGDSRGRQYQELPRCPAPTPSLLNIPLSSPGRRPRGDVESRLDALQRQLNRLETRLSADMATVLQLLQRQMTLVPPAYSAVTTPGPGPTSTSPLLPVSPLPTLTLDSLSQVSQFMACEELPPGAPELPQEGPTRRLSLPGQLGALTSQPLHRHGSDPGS

Structure (SMILES) | hERG current change (%, negative = inhibition) at 10uM [%]
CC(Oc1ccccc1)C(=O)Nc1ccc(S(=O)(=O)N2CCCC2)cc1 (stereo not shown) | 8.84
N#Cc1c(NC(=O)c2cnn3cccnc23)sc2c1CCCC2 | 19.6
CC(C)c1cc(C(=O)N2CCCC(N3CCN(c4ccc(F)cc4)CC3)C2)no1 (stereo not shown) | -72.1
COCCCNC(=O)Nc1ccc(Br)cc1Cl | 1.18
CN(c1ccccc1C(=O)Nc1cccc([N+](=O)[O-])c1)S(=O)(=O)c1ccccc1 | -63.2
CCCCC(=O)Nc1nc(C)c(-c2csc(Nc3cc(OC)ccc3OC)n2)s1 | 5.95
CCCn1c2ccccc2c2cnn(CC(=O)N(CC)CC)c(=O)c21 | -2.37
Cc1ccc(C2(c3noc(CN(C)Cc4cnn(C)c4)n3)CCCC2)cc1 | 8.58
N#C/C(=C/c1ccc([N+](=O)[O-])cc1)C(N)=O | 12.8
COc1ccc(OC/C(O)=C(\C#N)c2nc3ccccc3[nH]2)cc1 | -0.578
CCCC[N+]12C3C[C@H](C4[C@H](O)[C@]5(C[C@@H]41)c1ccccc1N(C)[C@@H]35)[C@H](CC)[C@H]2O.[I-] (stereo partly shown) | -56.4
COc1ccc(C2C(C(C)=O)=C(O)C(=O)N2c2ccc(Br)cc2)cc1 (stereo not shown) | 3.44
O=C(NCC1CCCN(C(=O)c2cccnc2)C1)c1ccc(-c2ccccc2)cc1 (stereo not shown) | -26.8
CCOC(=O)c1ccccc1NS(=O)(=O)c1cnn(CC)c1C | 6.25
Cn1nc(C(=O)OCC(=O)Nc2sccc2C(N)=O)c2ccccc2c1=O | 0.397
COc1ccc(N2C(=NC(=O)C3CCCCC3)SC3CS(=O)(=O)CC32)cc1Cl (stereo not shown) | -20.9
CCOCCn1c(CN2CCN(C(c3ccccc3)c3ccccc3)CC2)nc2c1c(=O)n(C)c(=O)n2C | -31.6
Cl.Nc1ncnc2nc[nH]c12 | 4.95
Cc1cccnc1NC(=O)c1ccc(S(=O)(=O)N2CCCCC2)cc1 | 12.8
CC(C)N1CCC(n2nccc2NC(=O)c2ccc3c(c2)OCO3)CC1 | 4.27
COc1ccccc1OCCN1CSC(=S)N(C)C1 | -25.7
CCOc1ccccc1NC(=O)c1cccc(S(=O)(=O)N(Cc2ccccc2)c2ccccc2OC)c1 | 10.5

Structure (SMILES) | hERG current change (%, negative = inhibition) at 10uM [%]
COC(=O)C(=Nc1ccccc1)/C(C(=O)C(=O)N(C)c1ccccc1)=C(\O)c1ccccc1 | 22.7
Cc1ccc(NC(=O)CCc2c(C)nn(-c3ccc(N4CCCCC4)nn3)c2C)cc1 | -1.15
CCN(CC)S(=O)(=O)c1ccc(Oc2ccc(S(=O)(=O)N(CC)CC)cc2)cc1 | -22.7
CC(CCc1ccccc1)NC(=O)CCN1N=C(c2ccccc2)CCC1=O (stereo not shown) | -27.6
COc1cc(/C=N/NC(=S)NCc2ccco2)cc(OC)c1OC | 15.9
Cc1ccccc1NC(=O)N1CCCN(c2ccc(C#N)cn2)CC1 | -30.1
COc1ccc(OC)c(NC(=O)CSc2nc3cccnc3n2C)c1 | -8.63
COc1ccccc1N(CC1CO1)S(=O)(=O)c1ccc(C)cc1 (stereo not shown) | 18.9
CC(OC(=O)c1cnc(Cl)c(Cl)c1)C(=O)NCc1ccccc1 (stereo not shown) | -9.22
COC(=O)C1=C(c2cccc(OCc3ccccc3)c2)C[C@@H]2CC[C@H]1N2C(=O)NCc1cccc(OC)c1 | 7.64
C=C(C)CNC(=S)NNC(=O)CCn1c2ccccc2c2ccccc21 | -20.1
CCCCCn1c(N)c(C(=O)NCc2cccs2)c2nc3ccccc3nc21 | -8
C/C(=N\NC(=O)Cn1nc(C)c([N+](=O)[O-])c1C)c1ccc(Cl)s1 | 2.42
CC1CCN(CC(=O)Nc2ccccc2Sc2ccccc2)CC1 | -5.71
O=C(Nc1ccccc1N1CCCCC1)C1CC(=O)N(c2ccccc2F)C1 (stereo not shown) | -2.85
CC(C)CCn1cnc2c1c(=O)[nH]c(=O)n2Cc1ccccc1 | 5.51
O=c1[nH]c2ccc(NCc3ccccc3OCc3ccc(Cl)cc3)cc2[nH]1 | 7.82
O=C(N/N=C/c1cccs1)c1cc(-c2ccc3ccccc3c2)n[nH]1 | -1.37
O=C(c1ccco1)N1CCN(C23CC4CC(CC(C4)C2)C3)CC1 | -13.4
CCOc1ccccc1N1C(=O)NC(=O)/C(=C/c2ccc3c4c(cccc24)CC3)C1=O | 2.74
COc1ccc(CCNC(=O)C(=O)NCC2CCCN2S(=O)(=O)c2ccccc2)cc1 (stereo not shown) | -49.1
O=C(NCN1C(=O)C2C3C=CC(C3)C2C1=O)OC1CCCCC1 (stereo not shown) | 4.17

Structure (SMILES) | hERG current change (%, negative = inhibition) at 10uM [%]
N#Cc1nc(Cc2ccccc2)oc1NCc1ccccc1Cl | -12.4
CC1Cc2ccccc2N1S(=O)(=O)c1cccs1 (stereo not shown) | -6.56
CC(C)=C1C(=O)NN(c2ccc(F)c(Cl)c2)C1=O | 18.5
CC(C)CCN1CCN(Cc2cc(F)ccc2-n2cccn2)CC1CCO (stereo not shown) | -25.8
Cc1cc(C)nc(N/C(=N\S(=O)(=O)Cc2ccccc2)Nc2ccc(F)c(Cl)c2)n1 | -13.8
CCN1CCc2c(OCC(=O)Nc3ccc4c(c3)OCCO4)cccc2C1=O | 5.28
Nc1nnc(Cc2ccccc2F)s1 | -8.84
Cc1ccc(NC(=O)COC(=O)C2=NN(c3ccccc3)C(=O)CC2)c(Br)c1 | 0.65
COC(=O)c1cc(O)cc(OC)c1C(=O)c1c(O)cc(C)cc1O | 4.87
Cc1c(Cl)cccc1NC(=O)CC1SC(=NCC2CCCO2)NC1=O (stereo not shown) | 3.76
COc1ccccc1NC(=O)C(C)OC(=O)C1CCN(S(=O)(=O)c2ccc(C)c(C)c2)CC1 (stereo not shown) | -4.41
COc1ccccc1Sc1ccccc1CC(C)N.Cl.O (stereo not shown) | -16.6
CC1CC(C)CN(CCCNC(=O)C2CCCN(c3nnc(N4CCCC4=O)s3)C2)C1 (stereo not shown) | 8.5
CCn1ccnc1CN1CCCC(C(=O)c2cc(C)c(OC)c(C)c2)C1 (stereo not shown) | -23.2
OCCNCCCCOc1ccccc1F | -9.69
O=c1c(Cc2ccc(F)cc2)c(O)ccn1CCCn1ccnc1 | 20.1
COc1ccc(Cl)cc1NC(=O)CSc1sc2c(O)cc(=O)[nH]c2c1C#N | 4.1
CCc1cccc(NC(=O)CSC2=NS(=O)(=O)c3ccccc32)c1 | -2.44
Clc1ccc(OCCCN2CCCC2)cc1Cl.O=C(O)C(=O)O | -67.7
Br.COC(=O)Cn1c(=N)n(CCN2CCCCC2)c2ccccc21 | -19.2
O=C(CSc1nc(-c2ccc(Cl)cc2)[nH]c(=O)n1)Nc1cccc(Cl)c1 | 22.3
O=C(Nc1ccc(Oc2ccsc2C(=O)O)cc1)c1ccccc1 | 7.36

Structure (SMILES) | hERG current change (%, negative = inhibition) at 10uM [%]
Cc1cccc(C)c1NC(=O)COC(=O)c1c(C)nn(-c2ccccc2)c1C | -4.61
Cc1ccc(C)c(OCC(=O)Nc2cccc(C(=O)O)c2)c1C | -28.6
CCOc1ccc(NC(=O)Nc2ccc(N(C)C(C)=O)cc2)cc1 | -2.39
Cc1[nH]n(-c2ncc(-c3ccccc3)s2)c(=O)c1C(c1ccc(Cl)cc1)C(C#N)C#N (stereo not shown) | 14.9
CCN(CC)C(=O)c1scc2c1OCCO2 | 13.2
O=C(Nc1cccc(Cl)c1)C1CCN(C(=O)c2cccs2)CC1 | -16.8
CCCC(=O)Nc1ccc2nn(-c3ccc(OC)cc3)nc2c1 | 9.41
C=CCn1c(SCC(=O)NC2CCCCC2)nnc1-c1sc(N)nc1C | -2.48
CN1C2=C(C#N)C(c3ccccc3)(C(F)(F)F)NC(=O)N2c2ccccc21 (stereo not shown) | 4.12
CN1CCOCCOc2ccccc2OCCOCC1 | 7.5
Cc1nc(C)c(NC(=O)OC(C)C)cc1NC(=O)OC(C)C | 16.3
Cc1ccc(C(=O)N/C(=C\c2ccc(-c3ccccc3[N+](=O)[O-])o2)C(=O)NCCCN2CCOCC2)cc1 | -61.9
CSc1ncc(C(C)=O)c(C)n1 | 16.4
COc1ccc(/C=N\NC(=O)CC(=O)Nc2cccc(Cl)c2)cc1OC | -9.69
CN1C(=O)CC(=O)N(C)c2cc(S(=O)(=O)N(C)Cc3ccccc3)ccc21 | -9.17
COc1ccc(S(=O)(=O)NC(N)=NCCc2ccccc2OC)cc1 | -4.72
Oc1ccc(C[C@H]2CNCCN2CCc2cccc3ccccc23)cc1 | -17.7
CS(=O)(=O)N1CCCC(C(=O)NCCc2ccccc2)C1 (stereo not shown) | -4.28
COc1ccc(/C=C/C(=O)c2cc(Cl)ccc2O)c(OC)c1 | -7.04
CCS(=O)(=O)N1CCC(C(=O)Oc2ccccc2OC)CC1 | 18.5
CCOc1ccc(NC(=O)COc2ccc(C(=O)NCC3CCCO3)cc2OC)cc1 (stereo not shown) | -13.4
COc1ccc(NC(=S)NCCc2ccc(F)cc2)c(OC)c1 | -19.4
